# Data reported in PMC4336329 (PLoS ONE, 2015).
# Among all 310,000 compounds or so, about 2,200 (0.71%) showed an effect of 50% or more. Effects have a minus sign here. The list shows a part of the results.
# Target: human ether-à-go-go-related gene (hERG) potassium channel (human, UniProt Q12809)
# Assay: primary screen, population patch clamp on CHO cells stably expressing hERG
# Chain of human ether-à-go-go-related gene (hERG) potassium channel (Q12809 whole entry, looked up): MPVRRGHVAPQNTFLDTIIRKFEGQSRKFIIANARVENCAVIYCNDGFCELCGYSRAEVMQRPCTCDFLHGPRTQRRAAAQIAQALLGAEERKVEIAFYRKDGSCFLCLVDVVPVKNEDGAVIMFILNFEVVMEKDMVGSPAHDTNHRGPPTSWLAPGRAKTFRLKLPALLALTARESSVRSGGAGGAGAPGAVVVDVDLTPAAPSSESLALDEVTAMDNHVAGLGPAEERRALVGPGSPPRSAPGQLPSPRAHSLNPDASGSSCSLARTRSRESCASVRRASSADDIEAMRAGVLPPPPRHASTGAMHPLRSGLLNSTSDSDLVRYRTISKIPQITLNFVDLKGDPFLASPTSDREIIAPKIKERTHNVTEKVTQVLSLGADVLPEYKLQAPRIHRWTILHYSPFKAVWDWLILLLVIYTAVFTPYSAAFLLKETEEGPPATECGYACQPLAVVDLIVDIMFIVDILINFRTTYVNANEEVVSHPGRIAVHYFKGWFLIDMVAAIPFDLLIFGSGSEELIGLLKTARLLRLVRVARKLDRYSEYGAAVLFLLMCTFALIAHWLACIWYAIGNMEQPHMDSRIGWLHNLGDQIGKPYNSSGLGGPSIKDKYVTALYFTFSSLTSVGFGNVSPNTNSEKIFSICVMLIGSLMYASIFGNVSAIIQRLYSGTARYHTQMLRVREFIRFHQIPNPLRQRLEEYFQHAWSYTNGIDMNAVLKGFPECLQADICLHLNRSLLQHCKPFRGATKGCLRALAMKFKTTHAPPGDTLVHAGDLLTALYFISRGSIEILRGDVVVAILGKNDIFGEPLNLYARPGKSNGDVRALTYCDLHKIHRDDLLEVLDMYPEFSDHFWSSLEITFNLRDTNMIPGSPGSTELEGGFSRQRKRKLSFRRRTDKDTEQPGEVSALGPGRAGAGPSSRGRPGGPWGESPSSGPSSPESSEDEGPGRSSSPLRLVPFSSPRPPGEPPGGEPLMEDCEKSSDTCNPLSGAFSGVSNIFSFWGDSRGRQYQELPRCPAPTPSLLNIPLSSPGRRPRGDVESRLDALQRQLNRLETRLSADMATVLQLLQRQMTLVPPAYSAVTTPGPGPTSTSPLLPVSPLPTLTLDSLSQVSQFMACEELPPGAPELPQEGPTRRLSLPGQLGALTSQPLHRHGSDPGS
row,SMILES,"hERG current change (%, negative = inhibition) at 1uM"
1,C[N+](C)(C)CC=O.[Cl-],13.9%
2,Cc1cc(C)c(S(=O)(=O)N(C)CC(=O)NCc2ccccn2)c(C)c1,7.65%
3,O=C(COc1ccccc1)N(Cc1cc2ccccc2[nH]c1=O)CC1CCCO1 (stereo not shown),8.77%
4,O=C1CCCC(O)=C1N=Nc1cccc(S(=O)(=O)N2CCOCC2)c1,6.16%
5,CCOC(=O)c1ccccc1NC1c2ccccc2C(=O)N1c1cc(C)ccn1 (stereo not shown),12.8%
6,COCc1ccccc1C1=CC(=O)C[C@H](c2ccc(F)cc2)C1,3%
7,CC(=O)c1ccccc1OCC(O)CN1CCN(CCN2C(=O)c3cccc4cccc(c34)C2=O)CC1 (stereo not shown),-73.5%
8,CCCC(=O)Nc1ccccc1NC(=O)c1ccc(OCC)cc1,4.54%
9,COc1ccc(NS(=O)(=O)c2cccc(C(=O)NCC(c3ccco3)N(C)C)c2)cc1 (stereo not shown),-10.1%
10,Cc1c(C(=O)OC(C)C)[nH]c2c1C(=O)CCC2,15.5%
11,CC1(C)CN=c2s/c(=C\c3ccc(Cl)cc3)c(=O)n2C1,5.15%
12,O=C(NNS(=O)(=O)c1ccc(F)cc1)C1CC(c2cccnc2)=NO1 (stereo not shown),14.8%
13,COc1ccc2c(c1OC)C(=O)N(c1cccc(C)c1)C2=O,9.81%
14,Cc1ccc(NC(=S)N2CCC(c3nc4ccccc4s3)CC2)cc1C,7.03%
15,COc1ccc(C2Nc3ccccc3C(=O)N2NC(=O)c2ccccc2)cc1OC (stereo not shown),8.11%
16,COc1cc2c(cc1NC(=O)CN(C)Cc1nc3ccccc3c(=O)[nH]1)oc1ccccc12,12.5%
17,CC(=O)/C=C(\C)N=Nc1c(O)[nH]c2ccccc12,15.7%
18,Cc1ncn(C23CC4CC(CC(C4)C2)C3)n1,1.98%
19,C#CCOCCOCCOCCNc1nc(N2CCN(C(=O)CCCCCCCCCCNC(=O)Cn3cc(C[C@@H](C)O)nn3)CC2)nc(N2CCN(C(=O)CCCCCCCCCCNC(=O)[C@H](CCCN=C(N)N)n3cc(C[C@@H](C)CC)nn3)CC2)n1,11.5%
20,CC(C)c1ccc(NC(=S)N2CCN(C)CC2)cc1,11.4%
21,O=S(=O)(Nc1cccc2ccccc12)c1cccs1,6.98%
22,COc1ccc(CCNC(=O)CSc2nnc3ccc(-c4ccccn4)nn23)cc1OC,14.6%
23,COc1ccc(-n2c(=S)[nH]c3cc(C(=O)NCc4cccnc4)ccc3c2=O)cc1,19.1%
24,CCOc1ccc(NC(=O)CN(C)C(=O)c2ccncc2)cc1OCC,-0.597%
25,COc1ccccc1NC(=O)CN1CCC(C(=O)c2ccc(F)cc2)CC1,-7.17%
26,Cc1cccc(NC(=O)NNC(=O)c2cc3occc3[nH]2)c1C,4.14%
27,C(=C\c1ccco1)/c1ccc2ccccc2n1,10.7%
28,O=C1CSC(c2cccnc2)N1c1ccc(F)cc1 (stereo not shown),5.62%

row,SMILES,"hERG current change (%, negative = inhibition) at 1uM"
1,Cc1nc2scc(C)n2c(=O)c1S(=O)(=O)N1CCN(c2ccccn2)CC1,13%
2,N#CCCN(C(=O)COC(=O)COc1ccc(Cl)cc1)c1ccccc1,-0.133%
3,COc1ccc(/C=N/NC(=O)Cn2nnc3ccccc32)cc1OC,-10.7%
4,Cc1cc(C(F)F)n2nc(C(=O)NCc3ccccc3F)nc2n1,14.4%
5,O=C(OCc1ccc([N+](=O)[O-])cc1)c1cc2ccccc2oc1=O,7.07%
6,O=C(CCc1ccc(S(=O)(=O)NC2CCCCC2)cc1)NCc1ccc(Cl)cc1,10.6%
7,CC(O)(CS(=O)(=O)Cc1ccccc1)c1ccccc1 (stereo not shown),13.8%
8,O=C1CCC([N+](=O)[O-])C(c2ccc(-c3ccccc3)cc2)N1 (stereo not shown),4.46%
9,Cc1nc2ccccc2n1CCOc1ccc([N+](=O)[O-])cc1,-24.2%
10,O=C(Cn1nnc(-c2ccccc2Cl)n1)N1CCCCC1,14%
11,O=C(O)c1ccccc1Sc1c([N+](=O)[O-])cc(C(F)(F)F)cc1[N+](=O)[O-],25.8%
12,Cc1onc(-c2ccccc2)c1C(=O)N1CCN(C)CC1,5.97%
13,C=CCSc1nnc2c(n1)OC(c1cccnc1)N(C(C)=O)c1ccccc1-2 (stereo not shown),0.113%
14,COc1ccc(C(=O)N2CCN(Cc3cn[nH]c3-c3ccc(OC)cc3F)CC2)cc1,-9.62%
15,O=Nc1c(O)n(Cc2ccc(Cl)c(Cl)c2)c2ccccc12,13.6%
16,COc1ccc(S(=O)(=O)NC(C)C(=O)NCc2cccnc2)cc1C (stereo not shown),-15.9%
17,CCOc1ccc2[nH]c(=O)c(CN(CC3COCCO3)C(=O)c3ccc(C)cc3)cc2c1 (stereo not shown),3.63%
18,O=c1c2ccccc2nc(/C=C/c2cc(Br)ccc2O)n1CCCO,6.3%
19,CC1=C(C(=O)OC2CCCCC2)C(c2cccc([N+](=O)[O-])c2)NC(=O)N1 (stereo not shown),11.4%
20,O=S(=O)(Oc1ccccc1)c1cccnc1,8.1%
21,OCC[C@H]1C[C@@H](O)[C@H](O)[C@]2(CCc3ccccc3O2)O1,9.28%
22,CCn1nnnc1SCC(=O)c1ccc(C)cc1,-4.25%
23,CSCC[C@H](NC(=O)[C@@H]1Cc2ccccc2CN1)C(=O)NC(C)c1ccccc1 (stereo partly shown),14%
24,Nc1nc(NCCCN2CCOCC2)nc(Nc2ccccc2F)c1[N+](=O)[O-],10.4%
25,O=C(C1CCCCC1)N1CCc2[nH]c3ccc(F)cc3c2C1,7.38%
26,Cc1cccc(NC(=O)c2ccccc2OCC(=O)c2ccccc2)c1,16.5%
27,COc1ccccc1NC(=O)C1C2C=CC(C2)C1C(=O)NCc1cccnc1 (stereo not shown),4.29%
